Measurements from article PMC10026737.
These are yes or no findings as the source states them, for the method shown. Binding seen in cells or lysates may run through a third protein. Some binding calls cover weakened binding; strength is not graded here. Tags and fused reporters may be left off the sequences shown.

Tests used:
Assay in all cases: co-IP; H1299 cells co-transfected with a Flag-tagged and a V5-tagged protein; NP40 lysis buffer (50 mmol/L Tris-HCl pH 8.0, 0.5% NP-40, 1 mmol/L EDTA, 150 mmol/L NaCl); IP with anti-Flag antibody, immunoblot
[1] = biological target: T1, Flag-DGCR8 deletion mutant, C-terminal region (aa 501-773) (UniProt Q8WYQ5)
T1 sequence: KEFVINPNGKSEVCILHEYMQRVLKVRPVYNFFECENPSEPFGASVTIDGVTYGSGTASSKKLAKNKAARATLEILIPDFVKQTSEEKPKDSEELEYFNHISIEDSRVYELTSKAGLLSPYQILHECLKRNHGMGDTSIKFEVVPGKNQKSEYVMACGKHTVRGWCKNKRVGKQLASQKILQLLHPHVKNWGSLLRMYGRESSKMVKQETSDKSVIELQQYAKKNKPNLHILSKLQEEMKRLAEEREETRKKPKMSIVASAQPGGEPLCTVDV

[2] = biological target: T2, Flag-Drosha (full length) (UniProt Q9NRR4)
T2 sequence: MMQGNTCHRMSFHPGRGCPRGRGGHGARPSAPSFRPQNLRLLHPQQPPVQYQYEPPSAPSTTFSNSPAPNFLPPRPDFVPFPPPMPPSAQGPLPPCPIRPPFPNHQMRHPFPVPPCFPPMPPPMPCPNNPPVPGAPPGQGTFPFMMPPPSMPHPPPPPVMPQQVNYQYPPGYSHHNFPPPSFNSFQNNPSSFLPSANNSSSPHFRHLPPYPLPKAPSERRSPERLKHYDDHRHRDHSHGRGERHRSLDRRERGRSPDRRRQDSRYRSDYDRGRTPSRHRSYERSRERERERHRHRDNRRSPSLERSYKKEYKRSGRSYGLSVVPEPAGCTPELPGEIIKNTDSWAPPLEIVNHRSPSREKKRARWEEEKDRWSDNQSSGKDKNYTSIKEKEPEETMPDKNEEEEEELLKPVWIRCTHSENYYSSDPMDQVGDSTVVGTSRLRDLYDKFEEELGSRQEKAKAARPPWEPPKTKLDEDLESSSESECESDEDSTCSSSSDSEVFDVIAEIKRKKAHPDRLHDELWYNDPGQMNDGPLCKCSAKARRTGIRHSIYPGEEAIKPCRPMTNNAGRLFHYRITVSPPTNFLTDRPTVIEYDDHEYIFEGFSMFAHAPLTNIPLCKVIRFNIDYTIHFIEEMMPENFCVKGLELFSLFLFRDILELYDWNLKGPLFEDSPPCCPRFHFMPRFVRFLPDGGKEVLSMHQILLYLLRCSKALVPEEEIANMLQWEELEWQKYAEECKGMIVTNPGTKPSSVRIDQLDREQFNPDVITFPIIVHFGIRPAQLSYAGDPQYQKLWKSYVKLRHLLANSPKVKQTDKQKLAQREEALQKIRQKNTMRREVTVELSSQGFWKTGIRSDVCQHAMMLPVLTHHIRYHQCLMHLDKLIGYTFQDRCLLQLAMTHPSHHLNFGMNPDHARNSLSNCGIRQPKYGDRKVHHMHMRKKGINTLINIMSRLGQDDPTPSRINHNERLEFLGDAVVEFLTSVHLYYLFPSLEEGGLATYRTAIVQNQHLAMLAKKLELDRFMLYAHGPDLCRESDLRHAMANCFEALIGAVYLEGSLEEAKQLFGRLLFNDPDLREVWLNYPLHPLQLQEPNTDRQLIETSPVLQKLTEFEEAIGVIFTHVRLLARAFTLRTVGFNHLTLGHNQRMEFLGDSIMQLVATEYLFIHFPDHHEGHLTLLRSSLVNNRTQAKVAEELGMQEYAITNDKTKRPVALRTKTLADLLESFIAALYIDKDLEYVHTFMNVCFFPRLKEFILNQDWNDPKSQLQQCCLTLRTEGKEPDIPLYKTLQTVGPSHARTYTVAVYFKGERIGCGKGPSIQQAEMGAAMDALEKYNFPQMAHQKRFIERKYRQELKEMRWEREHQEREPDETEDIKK

[3] = biological target: T3, Flag-DGCR8 (wild type, full length) (UniProt Q8WYQ5)
T3 sequence: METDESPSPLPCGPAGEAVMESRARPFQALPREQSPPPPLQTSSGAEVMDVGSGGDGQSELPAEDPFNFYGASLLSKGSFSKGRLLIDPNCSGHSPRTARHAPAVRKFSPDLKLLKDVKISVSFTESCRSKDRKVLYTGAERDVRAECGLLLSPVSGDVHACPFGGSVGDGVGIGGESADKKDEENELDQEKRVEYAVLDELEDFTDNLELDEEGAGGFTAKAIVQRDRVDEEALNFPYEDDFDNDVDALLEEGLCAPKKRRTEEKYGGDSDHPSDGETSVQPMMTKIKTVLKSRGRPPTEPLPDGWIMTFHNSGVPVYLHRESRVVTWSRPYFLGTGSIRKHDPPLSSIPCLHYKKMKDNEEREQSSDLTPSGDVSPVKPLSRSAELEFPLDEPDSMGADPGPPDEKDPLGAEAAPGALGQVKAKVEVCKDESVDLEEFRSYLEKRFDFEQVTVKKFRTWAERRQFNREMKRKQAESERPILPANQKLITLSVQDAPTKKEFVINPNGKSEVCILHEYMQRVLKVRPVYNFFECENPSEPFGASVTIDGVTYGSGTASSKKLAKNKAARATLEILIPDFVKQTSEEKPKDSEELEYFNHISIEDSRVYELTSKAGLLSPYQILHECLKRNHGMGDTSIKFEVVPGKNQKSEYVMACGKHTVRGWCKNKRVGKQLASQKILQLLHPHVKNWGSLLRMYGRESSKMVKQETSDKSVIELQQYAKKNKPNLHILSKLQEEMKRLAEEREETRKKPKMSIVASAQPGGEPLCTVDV

Measured: binding

B1: V5-tagged USP36 (enzyme, UniProt Q9P275 1-1123)
chain: MPIVDKLKEALKPGRKDSADDGELGKLLASSAKKVLLQKIEFEPASKSFSYQLEALKSKYVLLNPKTEGASRHKSGDDPPARRQGSEHTYESCGDGVPAPQKVLFPTERLSLRWERVFRVGAGLHNLGNTCFLNATIQCLTYTPPLANYLLSKEHARSCHQGSFCMLCVMQNHIVQAFANSGNAIKPVSFIRDLKKIARHFRFGNQEDAHEFLRYTIDAMQKACLNGCAKLDRQTQATTLVHQIFGGYLRSRVKCSVCKSVSDTYDPYLDVALEIRQAANIVRALELFVKADVLSGENAYMCAKCKKKVPASKRFTIHRTSNVLTLSLKRFANFSGGKITKDVGYPEFLNIRPYMSQNNGDPVMYGLYAVLVHSGYSCHAGHYYCYVKASNGQWYQMNDSLVHSSNVKVVLNQQAYVLFYLRIPGSKKSPEGLISRTGSSSLPGRPSVIPDHSKKNIGNGIISSPLTGKRQDSGTMKKPHTTEEIGVPISRNGSTLGLKSQNGCIPPKLPSGSPSPKLSQTPTHMPTILDDPGKKVKKPAPPQHFSPRTAQGLPGTSNSNSSRSGSQRQGSWDSRDVVLSTSPKLLATATANGHGLKGNDESAGLDRRGSSSSSPEHSASSDSTKAPQTPRSGAAHLCDSQETNCSTAGHSKTPPSGADSKTVKLKSPVLSNTTTEPASTMSPPPAKKLALSAKKASTLWRATGNDLRPPPPSPSSDLTHPMKTSHPVVASTWPVHRARAVSPAPQSSSRLQPPFSPHPTLLSSTPKPPGTSEPRSCSSISTALPQVNEDLVSLPHQLPEASEPPQSPSEKRKKTFVGEPQRLGSETRLPQHIREATAAPHGKRKRKKKKRPEDTAASALQEGQTQRQPGSPMYRREGQAQLPAVRRQEDGTQPQVNGQQVGCVTDGHHASSRKRRRKGAEGLGEEGGLHQDPLRHSCSPMGDGDPEAMEESPRKKKKKKRKQETQRAVEEDGHLKCPRSAKPQDAVVPESSSCAPSANGWCPGDRMGLSQAPPVSWNGERESDVVQELLKYSSDKAYGRKVLTWDGKMSAVSQDAIEDSRQARTETVVDDWDEEFDRGKEKKIKKFKREKRRNFNAFQKLQTRRNFWSVTHPAKAASLSYRR
binds: [1] | [2] | [3]
